In all, about 52,000 compounds went through this assay and about 1,700 (3.3%) were called active. Cut-off read from the data, not from the text of the source: active = survival mostly below about 52% (no sharp cut-off); inactive = mostly above about 56%. The list shows a part of the results.
Tested on: Wild type
Experiment: S. aureus survival, RN4220 and DeltatarO strains – OD600, teichoic acid synthesis inhibitors, primary screen (AID 463173)
Conditions: S. aureus RN4220 wild type/DeltatarO growth, OD600, 18 h, stronger effect = lower value, screened at 18.75 µg/mL (by protocol)

| SMILES | survival |
| --- | --- |
| COc1cccc(CNC(=O)Cn2c(SCC(=O)Nc3ccc(C)c(C)c3)nc3ccccc32)c1 | inactive: 76% |
| O=C(O)c1c2c(nc3ccc(S(=O)(=O)N4CCC(C(=O)NCc5ccc(Cl)cc5)CC4)cc13)CCCC2 | inactive: 80% |
| COc1ccc(S(=O)(=O)NCC(c2ccco2)N2CCN(c3ccccc3F)CC2)cc1C (centres undefined) | inactive: 99% |
| COc1cc(/C=C/c2nc3cc(Cl)ccc3c(=O)n2-c2ccc(C)cc2C)cc(OC)c1OC | inactive: 91% |
| CSc1ccc(NC(=O)Cn2nnnc2-c2ccccc2F)cc1 | inactive: 86% |
| CCOC(=O)c1c(C)oc2nc(C)nc(N3CCN(c4cccc(C)c4C)CC3)c12 | inactive: 89% |
| Cc1cc(Nc2cccc(C(F)(F)F)c2)nc2ccc(NC(=O)c3cccnc3)cc12 | inactive: 130% |
| CCc1cccc(NC(=O)c2cccc3c2C(=O)N(C2CCCCC2)C3)c1 | inactive: 84% |
| COc1ccc(Nc2ncnc3c2nc2n3CCCC2)cc1Cl | inactive: 59% |
| COc1nnc(-c2ccc(N3CCCCC3)c(NC(=O)c3ccccc3)c2)c2ccccc12 | active: -6% |
| O=C(NCC(c1cccnc1)N1CCc2ccccc21)C(=O)Nc1ccccc1F (centres undefined) | inactive: 108% |
| CCOC(=O)c1c(C)n(S(=O)(=O)c2ccc(C)cc2)c2ccc(NS(=O)(=O)c3ccc(C)cc3)cc12 | inactive: 82% |
| CC(NC(=O)c1cc(-c2ccc(Cl)cc2)on1)c1ccccc1 (centres undefined) | inactive: 140% |
| COc1ccc(CNC(=O)c2ccc3c(c2)N(Cc2ccccc2)CCS3)cc1 | inactive: 87% |
| CCOC(=O)c1nnn(CC(=O)NC(=O)Nc2ccc(F)cc2)c1C(=O)OCC | inactive: 133% |
| Cc1ccc(-n2nc3cc(C)c(NC(=O)Cc4ccc(Cl)cc4)cc3n2)cc1 | inactive: 66% |
| Cc1ccccc1C(=O)Nc1ccc2oc(-c3ccc(Cl)c(Cl)c3)nc2c1 | inactive: 77% |
| O=C(COc1ccccc1)NS(=O)(=O)c1ccc(N=NN2CCOCC2)cc1 | inactive: 105% |
| Cc1ccccc1Nc1nnc(-c2ccc(C)c(S(=O)(=O)N3CCCCC3)c2)c2ccccc12 | inactive: 111% |
| O=C(NCC(c1ccc2c(c1)OCO2)N1CCN(c2ccccc2)CC1)c1ccccc1 (centres undefined) | inactive: 66% |
| CC(C)Oc1ccc(C(=O)Nc2nc3c(s2)CC(C(C)(C)C)CC3)cc1 (centres undefined) | inactive: 113% |
| Cc1oc2ncn(CC(C)C)c(=O)c2c1C(=O)N(Cc1ccccc1)C(C)C | inactive: 67% |
| CN=C1S/C(=C\c2ccc(N3CCCC3)cc2)C(=O)N1C | inactive: 118% |
| Cc1ccc(Cn2c(C)c3cnn(CC(=O)N4CCN(c5ccc(F)cc5)CC4)c(=O)c3c2C)cc1 | inactive: 100% |

Source: PubChem BioAssay AID463173 (ICCB-Longwood Screening Facility, Harvard Medical School, 2010)
